Some of the results follow.
What follows are compounds tested on T1, C. trachomatis L2/434/Bu expressing GFP (CTL2-GFP). Details: total inclusion area; 28.5 h, 10 µM; inhibitor.
T1 construct: L2/434/Bu GFP intracellular growth in HeLa cells
Set-up: species or system HeLa; C. trachomatis total inclusion area by high-content imaging, normalised to DMSO
Outline: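 After bulk GFP and resorufin fluorescence reads, cells were fixed, stained with Hoechst and imaged by high-content microscopy. Inclusion area and number (GFP) stood in for chlamydial growth, nuclei count (Hoechst) for host cell viability. MICs were derived as for the bulk readout.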

SMILES | % of control remaining
Cc1cc(C[C@@H]2COC[C@H]2NCc2ccc(Cl)cc2)on1 [CBK285402] | 100.917
CC1CCCN(C(=O)c2ccc(-n3ccnc3)c(-n3cccc3)c2)C1 (stereo not shown) [CBK285370] | 94.5927
COc1ccc(CN[C@@H]2CCC[C@H]2Cc2cc(C)no2)cc1 [CBK285401] | 78.2902
c1ccc(C[n+]2cn3cc(-c4ccccc4)nc3[n-]2)cc1 [CBK261654] | 105.316
CN(C)c1nc(Cl)nc(N(C)C#N)n1 [CBK025922] | 89.9575
Cn1c(=O)c2[nH]c(CN3CCN(Cc4ccccc4)CC3)nc2n(C)c1=O [CBK269519] | 96.0924
CC1CC(C(F)F)n2nc(C(=O)O)nc2N1 (stereo not shown) [CBK267636] | 115.98
O=[N+]([O-])c1ccccc1S(=O)(=O)NCc1ccccn1 [CBK261751] | 91.5026
COc1ccc(C2(C(=O)NCc3c(F)cccc3F)CC2)cc1 [CBK149826] | 68.6643
CCN(CC)CCN1CCN(c2cncc(-c3cccc(/C=C/C(=O)O)c3)n2)CC1 [CBK066097] | 103.525
CC(C)(c1ccccc1)c1ccc(OCC(=O)Nc2cccc(C(=O)O)c2)cc1 [CBK266014] | 84.2616
COc1ccccc1CNC(=O)c1cccc(C)c1[N+](=O)[O-] [CBK265703] | 76.7397
COCCC(=O)NCC1Cc2cc(F)cc(-c3ccc(C(C)=O)s3)c2O1 (stereo not shown) [CBK306742] | 104.858
CCN(CC)CCN(C(=O)c1cnn(C)c1C)C1CCS(=O)(=O)C1 (stereo not shown) [CBK305321] | 109.347
C(=C\c1cccc(N2CCN(CCN3CCCC3)CC2)n1)/c1ccccc1 [CBK036853] | 119.69
COc1ccc(N2CCN(CC(O)COc3ccc4c(C)cc(=O)oc4c3)CC2)cc1 (stereo not shown) [CBK269847] | 100.22
COc1ccc(-c2nc(NC(=O)C3CC(=O)N(C)C3c3cccnc3)cnc2-c2cccc(C)c2)cc1 (stereo not shown) [CBK036692] | 116.828
COc1ccc(C(=O)Nc2cc(C)c3c(=O)oc4ccccc4c3n2)cc1OC [CBK287442] | 126.648
Cc1ccc(CC2CCCN(C(=O)NCc3cnn(C)c3)C2)cc1 (stereo not shown) [CBK303990] | 45.7797
CSCCN(CC(=O)O)Cc1ccccc1 [CBK005712] | 73.4335
Cc1ccccc1OCC(O)CN1CCN(CCN2C(=O)c3cccc4cccc(c34)C2=O)CC1 (stereo not shown) [CBK278321C] | 97.5533
COc1cc(C(=O)N2CCC(n3c(=O)[nH]c4c(C)cccc43)CC2)ccc1C [CBK155372] | 91.9423
Brc1ccc(-c2nc(CSc3nnnn3C3CCCCC3)no2)cc1 [CBK026913] | 109.879
COC[C@H]1CCCN1C(=O)CC[C@H]1CNC(=O)[C@@H]2[C@@H](CCN2C2CCCCC2)N1C [CBK289039] | 124.199
CCCCNC(=O)N1CCN(c2ccccc2Cl)CC1 [CBK043777] | 95.1769
CCCCc1nnc(CC(C)C)o1 [CBK008679] | 105.15
CN(C)S(=O)(=O)c1ccc(C(=O)C2=C(O)C(=O)N(CCN3CCOCC3)C2c2ccccc2)cc1 (stereo not shown) [CBK264540] | 93.7141

SMILES | % of control remaining
CC(C)NC(=O)CN1CCN(Cc2nc(-c3cccc(Cl)c3)no2)CC1 [CBK304369] | 67.1107
CN(C)C(=O)C(C)(C)Oc1cc(C(F)(F)F)n(C)n1 [CBK056980] | 55.7991
Cc1ccc(C)c(NC(=O)CCc2c(C)[nH]c3ncnn3c2=O)c1 [CBK304646] | 59.4904
O=S(=O)(c1ccccc1)n1ccc2c(Br)cccc21 [CBK002084] | 60.2823
O=[N+]([O-])c1ccccc1N/C(=N/S(=O)(=O)c1ccccc1)c1ccccc1 [CBK262336] | 107.329
O=C(Nc1cccnc1N1CCNCC1)c1cccnc1 [CBK029426T] | 106.016
CC1(C)CC2CC(C)(CN2Cc2c(O)ccc3cc(-c4nc(-c5ccc(Br)cc5)cs4)c(=O)oc23)C1 (stereo not shown) [CBK263831] | 90.6819
O=C(CN1CCN(C(c2ccccc2)c2ccccc2)CC1)CN1C(=O)c2ccccc2C1=O [CBK261682] | 86.1913
OCc1ccc(-c2nccnc2NCc2cccs2)cc1 [CBK088689] | 95.3491
CN1CCc2c1nc1ccccc1c2NC(=O)CN1CCCCCC1 [CBK278298G] | 65.8775
CCOC(=O)N1CCC(NC(=O)N(Cc2cccnc2)Cc2ccc3c(c2)OCO3)CC1 [CBK158897] | 90.3164
O=C(NC1CCS(=O)(=O)C1)c1cnc2c(OC(F)(F)F)cccc2c1O (stereo not shown) [CBK304323] | 105.444
OCCOc1cccc2cccnc12 [CBK001784] | 86.9255
COc1ccc(-c2ncc(Oc3cccc(NC(C)=O)c3)nc2N)c(OC)c1 [CBK145087] | 80.9914
COC(C)CN(C)C(=O)c1nnn(-c2ccc3ncccc3c2)c1C (stereo not shown) [CBK304484] | 49.2802
CC(=O)N1CCC2(CCCC[C@H]3CN(CC(=O)N(C)C)CC[C@@H]3NC(=O)CNC2=O)CC1 [CBK292163] | 100.448
Cn1c(=O)n(C)c2cc(-c3nc4ccccc4c(=O)[nH]3)ccc21 [CBK287887] | 114.458
Cc1nc(C(F)(F)F)ccc1COC(=O)N1CCOCC1 [CBK200122] | 98.4369
Cc1cc(C)cc(Nc2c([N+](=O)[O-])nn(-c3cccc(Cl)c3)[n+]2[O-])c1 [CBK268254] | 92.3735
Cc1nnsc1[S+]([O-])c1ccc(Br)cc1 (stereo not shown) [CBK012927] | 97.7526
O=C(O)CN1C(=O)C2CCC(c3ccccc3)CC2C1=O (stereo not shown) [CBK286952] | 123.386
Cc1oc2c(CN(C)C)c(O)ccc2c(=O)c1-c1cnn(-c2ccccc2)c1 [CBK264496] | 126.472
CCOC(=O)Cc1csc(NC(=O)CSc2nc3cc4c(cc3cc2C)OCO4)n1 [CBK109112] | 80.766
c1ccc(COc2cccc(CNCCN3CCOCC3)c2)cc1 [CBK278226C] | 98.7746
O=C(NC(c1ccccc1)c1cccnc1)C1CCN(C(=O)CN2C(=O)c3ccccc3C2=O)CC1 (stereo not shown) [CBK060515] | 77.97
Cc1ccc(NC(=O)CN2C(=O)c3ccccc3C2=O)c(C(=O)O)c1 [CBK262837] | 109.652
N#C/C(=C\c1ccc(C(=O)O)cc1)C(=O)NCC1CCCO1 (stereo not shown) [CBK263228] | 34.5662

SMILES | % of control remaining
N#CCCN(Cc1ccco1)C(=O)c1ccc(NC2CC2)nc1 [CBK304922] | 27.3977
O=c1nc(-c2ccccc2Cl)oc2ccccc12 [CBK152263] | 130.877
O=C(COc1ccc(I)cc1)N/N=C/c1cccc([N+](=O)[O-])c1 [CBK262211] | 109.493
Cc1nn(C)c2nc(NCc3ccc(C(=O)N4CCCC4)cc3)sc12 [CBK307190] | 83.8944
Cc1nnc(-c2cc(CC(C)C)n(-c3cccc(C(=O)N4CC=CCC4)c3)n2)o1 [CBK114630] | 93.9379
CC1CN(c2nccn(CCOc3ccc(Br)cc3)c2=O)CCN1 (stereo not shown) [CBK028596T] | 98.5031
COc1ccccc1-c1nnc(NC(=O)COc2ccccc2)o1 [CBK287590] | 104.689
CCC(CN(C(=O)C(N)CCCCN)c1ccc2c(c1)OCO2)c1ccccc1 (stereo not shown) [CBK001083T] | 36.9117
O=C(O)CCCC(=O)Nc1cc(C(=O)O)ccc1Cl [CBK267907] | 92.2981
Cc1cc(C)c(COc2nccnc2OC2CCN(CCCC#N)CC2)c(C)c1 [CBK161575] | 73.6698
Cc1cc2c(cc1NC(=O)[C@@H]1C[C@@H]3C=C[C@H]1C3)n(C)c(=O)n2C [CBK281689] | 85.6229
CS(=O)(=O)N1C2CCC(C2)[C@H]1COc1ccc(F)cc1 (stereo partly shown) [CBK285279] | 100.17
O=C(NCc1ccc2c(c1)OCO2)c1ccccc1CCc1ccccc1 [CBK268591] | 77.6156
Cc1cc(Cc2cnc(NC(=O)c3ccncc3)s2)ccc1Br [CBK298304] | 27.8344
CCN1CCN(S(=O)(=O)c2ccc(Br)cc2)CC1 [CBK100197] | 107.647
COc1ccc(-c2nnc(SCC(=O)O)n2C)cc1 [CBK287232] | 120.365
COc1cc([N+](=O)[O-])ccc1NC(=S)NCc1ccc(S(N)(=O)=O)cc1 [CBK267067] | 119.218
CC(Nc1cc(N2CCN(CCO)CC2)ccc1[N+](=O)[O-])c1ccc(Br)cc1 (stereo not shown) [CBK041273] | 0.171
Cc1cc(C(=O)N(Cc2ccccc2)c2ccccc2)no1 [CBK268131] | 92.0598
CC(C)(C)c1cc(C(=O)NCc2ccccn2)n(Cc2ccc(Cl)cc2Cl)n1 [CBK107288] | 94.3972
Cc1ccccc1-c1noc(C(C)NC(=O)C2(Cn3ccnc3)CC2)n1 (stereo not shown) [CBK306684] | 25.4084
O=C(Nc1cc(Oc2cccnc2)cc([N+](=O)[O-])c1)c1sc2ccccc2c1Cl [CBK300485] | 77.9966
Cc1ccc(S(=O)(=O)Nc2ccc3c(c2)CC(=O)N3)cc1 [CBK287657] | 91.501
CC(C)(C)C1=CC2=NC3(CCS(=O)(=O)CC3)[C@@H]3C[C@@H](O)[C@@H](O)[C@@H]3N2O1 [CBK303247] | 107.95
COc1ccc(C(=O)Nc2nc3ccc(S(N)(=O)=O)cc3s2)cc1 [CBK291147] | 90.1938
